The results in this text go back to article PMC5007379.

Amino acid sequences for entries named in this document (tags omitted). A change or cut given only in a name is not applied to a line headed by its entry. Residues count along the entry.
UniProt Q5VTR2: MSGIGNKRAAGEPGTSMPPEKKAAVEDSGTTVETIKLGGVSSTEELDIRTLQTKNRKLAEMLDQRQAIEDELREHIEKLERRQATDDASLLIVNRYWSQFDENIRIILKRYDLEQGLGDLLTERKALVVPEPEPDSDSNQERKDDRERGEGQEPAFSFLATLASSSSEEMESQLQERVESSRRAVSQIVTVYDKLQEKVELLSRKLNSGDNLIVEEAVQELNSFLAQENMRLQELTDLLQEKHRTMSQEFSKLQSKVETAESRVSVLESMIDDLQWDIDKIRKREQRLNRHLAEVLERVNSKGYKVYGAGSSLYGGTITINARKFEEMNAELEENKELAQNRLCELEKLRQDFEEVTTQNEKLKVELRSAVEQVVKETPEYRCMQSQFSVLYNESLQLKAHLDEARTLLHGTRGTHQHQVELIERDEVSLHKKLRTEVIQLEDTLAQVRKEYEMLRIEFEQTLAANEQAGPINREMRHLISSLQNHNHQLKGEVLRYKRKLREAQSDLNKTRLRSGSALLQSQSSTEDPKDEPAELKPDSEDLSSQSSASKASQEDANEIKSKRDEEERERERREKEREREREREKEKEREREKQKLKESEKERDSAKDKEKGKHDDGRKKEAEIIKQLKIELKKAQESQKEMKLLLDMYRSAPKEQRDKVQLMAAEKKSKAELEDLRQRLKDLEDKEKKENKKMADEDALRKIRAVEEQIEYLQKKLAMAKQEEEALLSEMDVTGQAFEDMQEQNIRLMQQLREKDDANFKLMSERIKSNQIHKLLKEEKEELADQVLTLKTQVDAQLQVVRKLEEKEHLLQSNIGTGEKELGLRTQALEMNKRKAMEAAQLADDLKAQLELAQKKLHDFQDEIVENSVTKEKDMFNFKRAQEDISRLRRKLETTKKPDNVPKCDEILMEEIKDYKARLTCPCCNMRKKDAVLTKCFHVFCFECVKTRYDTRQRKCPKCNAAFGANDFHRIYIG
UniProt O75150: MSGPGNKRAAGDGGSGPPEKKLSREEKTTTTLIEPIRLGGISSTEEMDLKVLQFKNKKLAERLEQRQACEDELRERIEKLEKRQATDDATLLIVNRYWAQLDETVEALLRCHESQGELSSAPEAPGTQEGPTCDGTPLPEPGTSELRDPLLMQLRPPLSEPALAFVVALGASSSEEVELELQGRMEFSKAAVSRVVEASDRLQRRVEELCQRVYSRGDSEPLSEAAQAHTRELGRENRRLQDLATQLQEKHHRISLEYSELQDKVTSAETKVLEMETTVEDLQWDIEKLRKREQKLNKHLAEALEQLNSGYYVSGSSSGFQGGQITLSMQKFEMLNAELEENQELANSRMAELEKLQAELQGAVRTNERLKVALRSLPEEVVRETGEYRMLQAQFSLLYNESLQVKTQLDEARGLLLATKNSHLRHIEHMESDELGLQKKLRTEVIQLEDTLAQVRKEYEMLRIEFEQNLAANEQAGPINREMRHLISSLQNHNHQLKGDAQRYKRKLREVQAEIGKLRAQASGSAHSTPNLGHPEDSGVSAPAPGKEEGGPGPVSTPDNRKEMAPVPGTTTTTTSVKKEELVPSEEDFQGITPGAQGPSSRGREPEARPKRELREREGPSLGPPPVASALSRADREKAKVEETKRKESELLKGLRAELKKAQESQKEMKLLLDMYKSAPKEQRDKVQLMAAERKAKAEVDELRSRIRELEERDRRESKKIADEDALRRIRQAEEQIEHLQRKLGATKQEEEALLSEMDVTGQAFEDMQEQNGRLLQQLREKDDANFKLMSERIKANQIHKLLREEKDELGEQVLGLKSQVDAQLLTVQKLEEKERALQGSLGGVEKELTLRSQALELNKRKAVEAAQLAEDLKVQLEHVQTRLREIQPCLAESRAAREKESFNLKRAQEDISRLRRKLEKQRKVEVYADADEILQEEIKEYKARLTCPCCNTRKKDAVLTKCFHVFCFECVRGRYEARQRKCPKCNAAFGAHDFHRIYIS
UniProt P52732: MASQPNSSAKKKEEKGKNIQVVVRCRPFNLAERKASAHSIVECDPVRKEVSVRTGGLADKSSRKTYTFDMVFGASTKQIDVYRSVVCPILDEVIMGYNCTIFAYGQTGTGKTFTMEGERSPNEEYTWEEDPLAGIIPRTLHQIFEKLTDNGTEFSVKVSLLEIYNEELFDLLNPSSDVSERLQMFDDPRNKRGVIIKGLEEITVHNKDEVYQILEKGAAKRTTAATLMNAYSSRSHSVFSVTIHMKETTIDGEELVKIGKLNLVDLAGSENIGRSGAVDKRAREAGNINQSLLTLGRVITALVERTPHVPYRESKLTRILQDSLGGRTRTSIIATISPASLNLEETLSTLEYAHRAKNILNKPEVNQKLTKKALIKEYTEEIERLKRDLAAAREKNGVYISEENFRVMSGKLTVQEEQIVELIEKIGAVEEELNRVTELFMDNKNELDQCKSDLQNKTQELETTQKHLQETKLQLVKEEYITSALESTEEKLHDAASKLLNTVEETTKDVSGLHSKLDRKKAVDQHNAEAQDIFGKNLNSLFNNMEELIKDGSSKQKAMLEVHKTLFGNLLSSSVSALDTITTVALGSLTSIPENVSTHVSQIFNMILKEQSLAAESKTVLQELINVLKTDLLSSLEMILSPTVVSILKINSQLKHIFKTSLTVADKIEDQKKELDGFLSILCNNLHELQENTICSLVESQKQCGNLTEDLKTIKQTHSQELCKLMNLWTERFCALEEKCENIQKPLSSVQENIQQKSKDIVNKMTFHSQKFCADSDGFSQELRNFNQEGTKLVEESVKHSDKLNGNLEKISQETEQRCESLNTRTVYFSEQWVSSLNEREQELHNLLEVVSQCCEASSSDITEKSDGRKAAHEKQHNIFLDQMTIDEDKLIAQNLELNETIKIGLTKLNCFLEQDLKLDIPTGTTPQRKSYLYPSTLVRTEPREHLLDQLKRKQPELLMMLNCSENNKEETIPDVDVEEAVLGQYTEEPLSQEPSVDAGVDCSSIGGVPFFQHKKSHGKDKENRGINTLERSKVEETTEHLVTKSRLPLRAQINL
GST-Eg5C: residues 790-1056 of P52732

Results are given in words; binding and its absence hold for the method and conditions named. Binding seen in cells or lysates may run through a third protein. Some binding calls cover weakened binding; strength is not graded here.

The target in assay [1] is RNF20 (endogenous) (human (endogenous in HeLa, MCF-7, PANC-1)) (UniProt Q5VTR2). Put plainly: co-IP; antibodies against endogenous RNF20, RNF40 or Eg5, then immunoblotting; total proteins of HeLa, MCF-7 and PANC-1 cells; also HeLa cells 8 h after release from a double thymidine block (G2/M). (A western blot detects proteins with antibodies after separation by electrophoresis.)

In assay [2] the target is RNF40 (endogenous) (human (endogenous in HeLa, MCF-7, PANC-1)) (UniProt O75150). The assay is described as above.
A further assay concerns the target GST-Eg5C (UniProt P52732). Put plainly: pull-down; GST pull-down with bacterially expressed GST-Eg5 or bacterially purified GST-Eg5 truncations and in vitro transcribed/translated RNF20 or RNF40; only the target purified.
Assay [3] addresses Eg5 (endogenous) (human (endogenous in HeLa, MCF-7, PANC-1)) (UniProt P52732). As to the kind of experiment: condition: only interphase cells (G1/S, 0 h after release from double thymidine block); co-IP; HeLa cells synchronized at G1/S by double thymidine block, collected 0 h after release (interphase); immunoprecipitation with antibodies against the indicated proteins, then immunoblotting.

Assay [4] shares this target. Put plainly: co-IP; antibodies against endogenous RNF20, RNF40 or Eg5, then immunoblotting; total proteins of HeLa, MCF-7 and PANC-1 cells; also HeLa cells 8 h after release from a double thymidine block (G2/M).

Regarding “Eg5 (endogenous) (from UniProt P52732 1-1056)”, the binding result in assay [1] and in assay [2] was “binds” each time.

Turning to “in vitro transcribed/translated RNF20 (from UniProt Q5VTR2 1-975)”, the binding result in the assay with GST-Eg5C is given as “binds”.

With “RNF20 (endogenous) (from UniProt Q5VTR2 1-975)”, the binding result in assay [3] was “no binding”; in assay [4] it was “binds”.
